Experimental data taken from the supplement of paper PMC3724861.
Some of the results follow.

These sequences were tested on T1, Caupolican (Caup) homeodomain DNA-binding domain (assay: PBM E-score (8-mer, recovered from the published 9-mer minima) (E-score (dimensionless, -0.5 to 0.5)); Drosophila protein; higher = stronger relative binding preference, active = 0.31 or more).
T1 sequence: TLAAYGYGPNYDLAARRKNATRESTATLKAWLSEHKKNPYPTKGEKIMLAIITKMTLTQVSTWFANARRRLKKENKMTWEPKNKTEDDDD
In short: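 Caup's homeodomain DNA-binding domain (residues 214-303) was produced by in vitro transcription and translation and applied at 100 nM to custom-designed protein binding microarrays. Each value is an enrichment score giving relative binding preference for a short DNA word; higher means stronger. Published 9-mer scores were the minimum of their two constituent 8-mer scores, and the 8-mer values were recovered from those minima. A cutoff of 0.31 marks candidate binding sequences.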

Sequence | PBM E-score
GACCCCCC | inactive: -0.352
AGGCTCAC | inactive: -0.163
GTGGGTTA | inactive: -0.0809
ATTCTAGC | inactive: 0.0256
CAGATATG | inactive: 0.0947
TCAAAGAA | inactive: 0.0668
CATAATAC | inactive: 0.236
ATACTAAT | inactive: 0.163
GCATTGGA | inactive: -0.0288
GCCATGCC | inactive: -0.149
GAAGGGTA | inactive: 0.0181
CGTCGCCC | inactive: -0.171
CCCCAGCC | inactive: -0.285
GCTCCAGA | inactive: -0.128
AATCCCAC | inactive: -0.0145
CACAGCTA | inactive: 0.0403
CGATAGGA | inactive: 0.00723
ACGGACGG | inactive: -0.115
CATTACGC | inactive: -0.011
ATGTGGGC | inactive: -0.027
GGAGATTA | inactive: 0.0459
TGGGCCAA | inactive: -0.11
GAAAACAA | inactive: 0.215
AAGCGATG | inactive: -0.067

Sequence | PBM E-score
ATGGAAGA | inactive: -0.0169
ATGTATAA | active: 0.344
ATAAGCAT | inactive: 0.0746
CAGGTGGG | inactive: -0.134
CAAGATAC | inactive: 0.216
AATCTTCG | ≥ 0.0403
CGGTGATC | inactive: -0.0689
TGAACGCA | ≥ 0.0319
AGCCGACA | inactive: 0.0713
CTATCTCC | inactive: -0.0343
AACTGTCG | inactive: 0.081
AGCGACAC | inactive: 0.188
CCTTCTTC | inactive: -0.0726
AATCCTCC | inactive: -0.132
ACGGCTGA | ≥ -0.0396
CAAGCGGA | inactive: -0.0208
CCTTGCTA | inactive: 0.0673
GAGCCCCC | inactive: -0.346
ATCTTAAA | inactive: -0.0278
ATACTTCA | inactive: 0.0715
CAATAAGA | inactive: 0.0892
ATCCCCGA | inactive: -0.0851
ACGGCTCT | inactive: -0.188
CAGCGACC | inactive: -0.177

Sequence | PBM E-score
AAGTCAAC | inactive: 0.0982
AATATCAC | inactive: 0.125
AGTTCTCG | inactive: 0.0205
ATTTGCTG | inactive: 0.0976
TCGCCAAA | inactive: -0.1
CCTCATTA | inactive: 0.0512
AATCCTTG | inactive: 0.081
GGAGGCGA | inactive: -0.22
AGCTGAGC | inactive: -0.235
CTGCGATC | inactive: -0.0123
AAAGGCAT | inactive: 0.0549
ACTTTCAT | inactive: 0.00867
AATAGGGC | inactive: -0.0654
ATTCTCAG | inactive: 0.0238
ATCAGAAA | inactive: 0.106
AACGCCCC | inactive: -0.182
TGTAACAA | active: 0.405
CAGGTGGA | inactive: -0.11
CGTCTGAC | inactive: -0.0706
ATCTTAAG | inactive: -0.0841
CTTAACTA | inactive: 0.114
CTAGTGAG | inactive: -0.135
CAACTGAC | inactive: 0.00851
ACGAAAAG | inactive: -0.0452

Sequence | PBM E-score
GAAAAAGC | inactive: -0.19
GCTCCACA | inactive: -0.0519
ATGCTATA | inactive: 0.11
AAGAAATA | inactive: 0.127
CTCCTTTA | inactive: -0.0502
GCAATAGA | inactive: -0.0405
AACACGTT | inactive: 0.292
GTACATAC | inactive: 0.307
AGCGCCGA | inactive: -0.181
AGAGCCTA | inactive: -0.0924
TCTGCAAA | inactive: 0.0257
ATCACAAC | inactive: 0.212
CTTTTCCC | inactive: -0.00826
ATTGCATC | inactive: 0.0898
ATGAGTAA | inactive: 0.0849
AGAAAGTG | inactive: 0.026
AAAGTAAA | inactive: 0.0632
AAGAAGAT | inactive: 0.0416
CGGTGAAA | inactive: -0.001
AACATGGC | active: 0.328
AATGGGAA | inactive: -0.00757
ATACAATG | inactive: 0.248
GGGGCACC | inactive: -0.26
AAAGTTCT | inactive: -0.0156

Sequence | PBM E-score
ACGGCGAT | ≥ 0.0135
ACGCGACG | inactive: -0.0146
CACTACAA | inactive: 0.266
AATTTAGC | inactive: -0.0582
CAAATCTG | inactive: 0.0723
CTCCCCGA | inactive: -0.166
AAACTTCA | inactive: 0.0706
GATTAAGC | inactive: -0.0591
ACATAAGT | inactive: 0.282
CGTCGCTA | inactive: -0.0518
TCGGTCAA | inactive: 0.0561
CGCCTTGA | inactive: -0.107
GCACTCCC | inactive: -0.15
ATCGAGAT | inactive: 0.0306
CCGACCTA | inactive: -0.0546
GAAACTGA | inactive: -0.0219
AAAGACCG | inactive: -0.0898
CGTTAACG | inactive: -0.0581
TGCCGTAA | inactive: -0.0481
CAAGAACC | inactive: 0.0713
ATAATTCA | inactive: 0.149
GAAGGCGC | inactive: -0.223
GAGCCTAA | inactive: 0.00798
AGCTATTA | inactive: 0.0848

Sequence | PBM E-score
CCGTTCCA | inactive: 0
TCTGACAA | inactive: 0.217
CGCAACTA | inactive: 0.00578
CAAAGCGG | inactive: -0.128
AGCGTCAT | inactive: -0.00681
CACTATGG | inactive: -0.0272
CAATCCAG | inactive: -0.076
CTTTACGC | inactive: 0.0204
GACTCGTA | inactive: 0.0803
ACACATAG | inactive: 0.174
AGAGTGTG | inactive: 0.0333
ACAGTTAG | inactive: 0.0221
ATTGCAGC | inactive: 0.00162
ACAGCGGG | inactive: -0.082
ACTTGCAT | inactive: 0.137
GCTACGTA | inactive: 0.0317
ATGCCTGG | inactive: -0.043
ACCTAAAC | inactive: 0.0229
CCCATACA | inactive: 0.0806
CGGCTGCA | inactive: -0.165
GTTCTACA | inactive: 0.146
GGGGAAAA | inactive: -0.102
